From the supplement of paper PMC11417369
± gives the standard deviation of the averaged measurements. This is one part of the list.

What follows are sequences tested on PfAP2-EXP AP2 domain (GST-tagged) (assay: gcPBM binding intensity (ln(normalized median fluorescence intensity)); higher = stronger DNA binding).
Procedure, shortened: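 DNA-binding domains from P. falciparum, fused to GST and produced in E. coli, were put on an Agilent 4 × 180k double-stranded probe array for 1 h in 1× PBS holding 1% milk, 0.2 mg/ml BSA, 0.5% salmon testes DNA and 0.03% Triton X-100. Probes were primer-extended, 36 bp long and drawn from intergenic genomic regions, with negative controls included. After Alexa488 anti-GST antibody detection and a 488 nm scan, binding intensity was set as the highest Masliner-normalised natural-log median intensity across replicate spots of either probe orientation.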
In the case of “TTATTAAATTCATAAGTGCATTTATGATTAATTTTT [GTGCAC_site9749]”, the “gcPBM binding intensity (ln)” value is reported as 8.32 ± 0.085. In the case of “TTCATCTTAAAATTGGGTACATAACACAAAGTATAA [XGTACX_site1894]”, the “gcPBM binding intensity (ln)” value is reported as 8.67 ± 0.33. “ATATATATTAACAATACACACGTGTATACCTTATTG [CACACA_site5258]” was tested, and the “gcPBM binding intensity (ln)” value was 8.79 ± 0.39. For “TTACATGTAAAAGGTACACACATTATGTATACAAAT [CACACA_site1117]”, the “gcPBM binding intensity (ln)” value was 8.96 ± 0.59. “TTTTTTTTTTTTTTTTGTCCGTACTGCTTTGTGTTT [XGTACX_site3687]” was tested, and the “gcPBM binding intensity (ln)” value was 8.26 ± 0.69. “ATATATATATAGTGCACACTTAAGAATATAAAGAGG [CACACA_site1151]” was tested, and the “gcPBM binding intensity (ln)” value was 9.98 ± 0.14. In the case of “CTATAAATATTTTATTGTACACACTTTTTATGAATG [XGTACX_site6711]”, the “gcPBM binding intensity (ln)” value is reported as 8.88 ± 0.49. “AAAATTTTTAGTTATACACACAACATAGAAAATATT [CACACA_site328]” was tested, and the “gcPBM binding intensity (ln)” value was 8.67 ± 0.41. With “CACATACACCCATACACACACATATATATTAAGATA [CACACA_site4459]” the “gcPBM binding intensity (ln)” value was 8.66 ± 0.38. For “AAACTTAATATCGGTACACACACAAGATAAGAATTA [CACACA_site8200]”, the “gcPBM binding intensity (ln)” value was 8.7 ± 0.66. “AATACATACAGACACACACACACATATATATATATA [CACACA_site3558]” was tested, and the “gcPBM binding intensity (ln)” value was 10 ± 0.22. For “AATCACAACAGACACACACACAAAAAAAAAAAAAAA [CACACA_site1442]”, the “gcPBM binding intensity (ln)” value was 8.15 ± 0.64. In the case of “TTAATATAATAGAAGTGTACACACATATTTATGTGT [XGTACX_site6672]”, the “gcPBM binding intensity (ln)” value is reported as 8.8 ± 0.19. “ATATGTTATATAAATATATATATATATATATATATA [TGCATGCA_negctrl_site594]” was tested, and the “gcPBM binding intensity (ln)” value was 10.1 ± 0.33. With ATATATATATATATAGTGCATAAAATAAGTTTCTAA the “gcPBM binding intensity (ln)” value was 10.2 ± 0.28. With “TATTTATAAACATACGCACACATTAAAATATATATA [CACACA_site6051]” the “gcPBM binding intensity (ln)” value was 8.65 ± 0.48. “TAATAATAAAAATAAACACACATATATCTGTATTTA [CACACA_site5572]” was tested, and the “gcPBM binding intensity (ln)” value was 8.06 ± 0.4. In the case of “GGTGGAAACAATTACACACACACAAAAAAAAAAAAA [CACACA_site3208]”, the “gcPBM binding intensity (ln)” value is reported as 8.46 ± 0.54. In the case of “TTTTTATAAATACACATAAATATATATATATATATA [TGCATGCA_negctrl_site393]”, the “gcPBM binding intensity (ln)” value is reported as 10 ± 0.47. For “ACACAAAAAAATATATATATATATATATATATGTTA [CACACA_negctrl_site55]”, the “gcPBM binding intensity (ln)” value was 8.6 ± 0.11. For “ATGCATTATTAGAATACACACCATACGCATATTTAT [CACACA_site4319]”, the “gcPBM binding intensity (ln)” value was 8.83 ± 0.37. “AAAAAAAAAAAAAAATGTACATTTTGAAAGGATATA [XGTACX_site8217]” was tested, and the “gcPBM binding intensity (ln)” value was 8.46 ± 0.32. For “TAAAGAAAAAGAGAATGTACATGAGAAAAGTATACT [XGTACX_site7472]”, the “gcPBM binding intensity (ln)” value was 9.28 ± 0.42. For “AAAAAAGATAATTATGCACACACACCCACCCACCCA [CACACA_site8825]”, the “gcPBM binding intensity (ln)” value was 9.57 ± 0.41. For “AGAAAAAAAAAAAAATGTACAGACTTTTTCTTATAA [XGTACX_site6481]”, the “gcPBM binding intensity (ln)” value was 8.44 ± 0.59.
